The whole screen tested about 310,000 compounds, of which about 2,200 (0.71%) showed an effect of 50% or more. Effects have a minus sign here. The list shows a part of the results. Where a SMILES comes first, the peptide text is derived from it. The star is where a group is joined. Boc = CC(C)(C)OC(=O)*
The compounds below were run against human ether-à-go-go-related gene (hERG) potassium channel (human, UniProt Q12809) (assay: primary screen, population patch clamp on CHO cells stably expressing hERG).
Sequence of human ether-à-go-go-related gene (hERG) potassium channel (Q12809 whole entry, looked up): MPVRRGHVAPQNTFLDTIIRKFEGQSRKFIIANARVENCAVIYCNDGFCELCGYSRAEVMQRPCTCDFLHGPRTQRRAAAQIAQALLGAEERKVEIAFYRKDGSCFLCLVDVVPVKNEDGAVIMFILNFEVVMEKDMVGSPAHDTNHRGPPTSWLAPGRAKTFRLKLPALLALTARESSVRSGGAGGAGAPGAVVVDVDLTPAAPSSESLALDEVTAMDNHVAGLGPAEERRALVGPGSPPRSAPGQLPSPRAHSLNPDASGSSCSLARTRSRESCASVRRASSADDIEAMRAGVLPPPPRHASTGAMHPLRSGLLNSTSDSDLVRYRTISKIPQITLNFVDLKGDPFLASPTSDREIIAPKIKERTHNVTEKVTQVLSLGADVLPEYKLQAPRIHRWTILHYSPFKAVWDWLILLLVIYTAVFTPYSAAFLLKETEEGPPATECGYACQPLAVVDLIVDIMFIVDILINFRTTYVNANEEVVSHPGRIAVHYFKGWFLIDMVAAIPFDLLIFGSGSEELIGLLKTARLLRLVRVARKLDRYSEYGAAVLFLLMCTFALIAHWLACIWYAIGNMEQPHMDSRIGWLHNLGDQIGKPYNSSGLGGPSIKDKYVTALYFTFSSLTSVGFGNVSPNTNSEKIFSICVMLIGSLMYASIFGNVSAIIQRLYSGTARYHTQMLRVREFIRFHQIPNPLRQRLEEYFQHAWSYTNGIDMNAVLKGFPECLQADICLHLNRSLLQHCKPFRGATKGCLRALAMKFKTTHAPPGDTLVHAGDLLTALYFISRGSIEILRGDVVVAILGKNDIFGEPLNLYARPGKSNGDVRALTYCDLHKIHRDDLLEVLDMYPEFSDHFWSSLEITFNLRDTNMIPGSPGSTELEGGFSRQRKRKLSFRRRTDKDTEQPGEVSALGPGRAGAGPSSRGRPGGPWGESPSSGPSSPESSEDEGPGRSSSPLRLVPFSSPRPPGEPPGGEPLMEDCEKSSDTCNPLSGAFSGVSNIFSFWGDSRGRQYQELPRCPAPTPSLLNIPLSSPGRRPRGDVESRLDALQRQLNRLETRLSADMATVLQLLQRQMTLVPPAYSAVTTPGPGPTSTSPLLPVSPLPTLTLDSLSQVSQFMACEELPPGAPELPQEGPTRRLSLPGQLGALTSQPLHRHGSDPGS
For `COc1ccc(C)cc1NC(=O)CN(c1ccc(F)cc1)S(C)(=O)=O`, the “hERG current change (%, negative = inhibition) at 1uM” value was 7.3%. In the case of `CCCCNS(=O)(=O)c1ccc(OCC(=O)OC)cc1`, the “hERG current change (%, negative = inhibition) at 1uM” value is reported as -0.496%. For `CC(C)(C)C(=O)NCCCc1nc2ccccc2n1CCCOc1ccc(Cl)cc1`, the “hERG current change (%, negative = inhibition) at 1uM” value was -9.5%. For `COC(=O)c1ccc(Oc2nc(NC(C)C)nc(NC(C)C)n2)cc1`, the “hERG current change (%, negative = inhibition) at 1uM” value was 11.4%. `CC(OC(=O)CCOc1ccccc1)C(=O)Nc1ccc(Cl)cn1` (stereo not shown) was tested, and the “hERG current change (%, negative = inhibition) at 1uM” value was 5.07%. In the case of `CCNC(=O)Cn1cc(C(F)(F)F)cc(Cl)c1=O`, the “hERG current change (%, negative = inhibition) at 1uM” value is reported as 11.3%. `Cc1cccc(C)c1NC(=S)NC1CCCCC1` was tested, and the “hERG current change (%, negative = inhibition) at 1uM” value was 11.7%. In the case of `COc1cc(-c2cc(C(=O)Nc3ccc(S(=O)(=O)NCc4ccco4)cc3)c3ccccc3n2)cc(OC)c1OC`, the “hERG current change (%, negative = inhibition) at 1uM” value is reported as 11.8%. For `CC(=O)Nc1nc(-c2ccccc2)cc(-c2ccco2)c1C#N`, the “hERG current change (%, negative = inhibition) at 1uM” value was 7.82%. In the case of `CCc1nnc(NS(=O)(=O)c2ccc(N=Cc3c(C)[nH]n(-c4ccc(C)cc4)c3=O)cc2)s1`, the “hERG current change (%, negative = inhibition) at 1uM” value is reported as -3.72%. For `O=C(Nc1ccc(O)cc1)c1ccc2c(c1)C(=O)N(N1C(=O)c3ccccc3C1=O)C2=O`, the “hERG current change (%, negative = inhibition) at 1uM” value was 13.5%. In the case of `CCCNC(=O)COc1ccc2c(=O)c(Oc3ccccc3F)coc2c1`, the “hERG current change (%, negative = inhibition) at 1uM” value is reported as -38.2%. In the case of `Cc1cc2c(o1)CC(C)(C)CC2=O`, the “hERG current change (%, negative = inhibition) at 1uM” value is reported as 6.39%. `C#CCOCCOCCOCCNc1nc(N2CCN(C(=O)[C@H](CCC(=O)O)n3cc(C(N)CO)nn3)CC2)nc(N2CCN(C(=O)[C@H](CCC(=O)O)n3cc(C(N)[C@H](C)CC)nn3)CC2)n1.Cl` (stereo partly shown) was tested, and the “hERG current change (%, negative = inhibition) at 1uM” value was -9.48%. For `CC(C)CNC(=S)NC1CC2CCCC(C1)N2C1CCCCC1` (stereo not shown), the “hERG current change (%, negative = inhibition) at 1uM” value was 16%. With `CC(=O)Oc1ccc2ccc(=O)oc2c1` the “hERG current change (%, negative = inhibition) at 1uM” value was 22.7%. With `COc1cc(C(=O)NCC(=O)OCC(=O)Nc2nnc(-c3ccccc3)o2)cc(OC)c1OC` the “hERG current change (%, negative = inhibition) at 1uM” value was 24.4%. In the case of `CC(C)(C)OC(=O)N1CCCC1C(=O)NC(Cc1ccccc1)C(=O)O` (stereo not drawn) (Boc-Pro-Phe-OH; configuration not given here), the “hERG current change (%, negative = inhibition) at 1uM” value is reported as 3.88%. In the case of `O=C(c1ccc(COCC(F)(F)F)o1)N1CCCCCC1`, the “hERG current change (%, negative = inhibition) at 1uM” value is reported as 11.9%. For `COc1c(F)cccc1C1=CC(=O)C[C@H](c2ccc3c(c2)OCO3)C1`, the “hERG current change (%, negative = inhibition) at 1uM” value was 20.5%. With `FC(F)Sc1ccc(NC(=S)NCc2ccccc2)cc1` the “hERG current change (%, negative = inhibition) at 1uM” value was 0.835%. In the case of `Cc1ccc(S(=O)(=O)N2CCC3(CC2)OCCN3S(=O)(=O)c2c(C)cc(C)cc2C)cc1`, the “hERG current change (%, negative = inhibition) at 1uM” value is reported as 9.32%. With `CN(C)CCCN(C(=O)c1ccco1)c1nc2cc3c(cc2s1)OCO3.Cl` the “hERG current change (%, negative = inhibition) at 1uM” value was 3.45%. `CCCCn1c(N)c(N(CC)C(=O)C2CCN(C(=O)c3ccccc3C)CC2)c(=O)[nH]c1=O` was tested, and the “hERG current change (%, negative = inhibition) at 1uM” value was 5.2%. For `COCCn1c(COc2cccc(OC)c2)nnc1SCC(=O)NC1CCCC1`, the “hERG current change (%, negative = inhibition) at 1uM” value was 2.52%. For `O=C(CCc1nnc(CCc2c[nH]c3ccccc23)o1)NC1CCC1`, the “hERG current change (%, negative = inhibition) at 1uM” value was 8.49%. `Cn1c(=O)c2c(ncn2CCO)n(C)c1=O` was tested, and the “hERG current change (%, negative = inhibition) at 1uM” value was 19.2%. With `O=C(CNc1cc(S(=O)(=O)N2CCOCC2)ccc1NCC1CCCO1)Nc1ccc(F)c(F)c1` (stereo not shown) the “hERG current change (%, negative = inhibition) at 1uM” value was 3.78%. In the case of `O=C1C(C=NCc2ccccn2)=C(O)c2ccccc21`, the “hERG current change (%, negative = inhibition) at 1uM” value is reported as 2.73%. With `Cc1cccc(N=C2NC(=O)S/C2=C\c2ccco2)c1` the “hERG current change (%, negative = inhibition) at 1uM” value was 8.16%. For `COC(=O)c1ccccc1NC(=O)CSc1nnc(-c2cccnc2)n1C`, the “hERG current change (%, negative = inhibition) at 1uM” value was -1.98%. For `C=CCCC(=O)Nc1nc(C)c(-c2csc(Nc3ccc(Cl)cc3)n2)s1`, the “hERG current change (%, negative = inhibition) at 1uM” value was 16.7%. In the case of `O=[N+]([O-])c1ccc(N2CCNCC2)c(Cl)c1`, the “hERG current change (%, negative = inhibition) at 1uM” value is reported as 7.65%. In the case of `COc1ccc(Nc2cccc3ccccc23)cc1`, the “hERG current change (%, negative = inhibition) at 1uM” value is reported as 16.4%. For `CSCCC(NS(=O)(=O)c1ccc2[nH]c(=O)c(=O)[nH]c2c1)C(=O)O` (stereo not shown), the “hERG current change (%, negative = inhibition) at 1uM” value was 5.83%. With `COC(C(=O)Nc1ccnn1C1CCN(Cc2ccccn2)CC1)c1ccccc1` (stereo not shown) the “hERG current change (%, negative = inhibition) at 1uM” value was 18.1%. With `Cc1nc2scc(C)n2c(=O)c1S(=O)(=O)Nc1ccc(N2CCOCC2)c(Cl)c1` the “hERG current change (%, negative = inhibition) at 1uM” value was 12.3%. With `CCOc1ccc(CCNC(=O)CSc2n[nH]c(N)n2)cc1OCC` the “hERG current change (%, negative = inhibition) at 1uM” value was 13.5%. In the case of `O=C(O)[C@H](Cc1ccccc1)NC(=O)N1CCOCC1`, the “hERG current change (%, negative = inhibition) at 1uM” value is reported as 4.61%. For `COC(=O)C1CCN(C(=O)Cc2ccc(OC)c(OC)c2)CC1`, the “hERG current change (%, negative = inhibition) at 1uM” value was 1.78%. For `CC(C)OCP(=O)(c1ccccc1)c1ccccc1`, the “hERG current change (%, negative = inhibition) at 1uM” value was 6.74%. `CSc1ccccc1OCc1cc(C(=O)N2CCSCC2)no1` was tested, and the “hERG current change (%, negative = inhibition) at 1uM” value was 12.1%. With `O=C(Nc1nc2ccc(Cl)cc2s1)C1CC1` the “hERG current change (%, negative = inhibition) at 1uM” value was 18%.

Reference: article PMC4336329 (PLoS ONE, 2015)
